# Reference: publication PMC4336329 (PLoS ONE, 2015)
# Out of some 310,000 compounds screened, about 14,000 (4.5%) showed an effect of 50% or more. The effect is printed as a negative number. This is one part of the list.
# Molecular target: human ether-à-go-go-related gene (hERG) potassium channel (human, UniProt Q12809)
# Experiment: primary screen, population patch clamp on CHO cells stably expressing hERG
# 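Also: peak tail current of the secondary pulse compared with the same well before compound.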
# Chain of human ether-à-go-go-related gene (hERG) potassium channel (Q12809 whole entry, looked up): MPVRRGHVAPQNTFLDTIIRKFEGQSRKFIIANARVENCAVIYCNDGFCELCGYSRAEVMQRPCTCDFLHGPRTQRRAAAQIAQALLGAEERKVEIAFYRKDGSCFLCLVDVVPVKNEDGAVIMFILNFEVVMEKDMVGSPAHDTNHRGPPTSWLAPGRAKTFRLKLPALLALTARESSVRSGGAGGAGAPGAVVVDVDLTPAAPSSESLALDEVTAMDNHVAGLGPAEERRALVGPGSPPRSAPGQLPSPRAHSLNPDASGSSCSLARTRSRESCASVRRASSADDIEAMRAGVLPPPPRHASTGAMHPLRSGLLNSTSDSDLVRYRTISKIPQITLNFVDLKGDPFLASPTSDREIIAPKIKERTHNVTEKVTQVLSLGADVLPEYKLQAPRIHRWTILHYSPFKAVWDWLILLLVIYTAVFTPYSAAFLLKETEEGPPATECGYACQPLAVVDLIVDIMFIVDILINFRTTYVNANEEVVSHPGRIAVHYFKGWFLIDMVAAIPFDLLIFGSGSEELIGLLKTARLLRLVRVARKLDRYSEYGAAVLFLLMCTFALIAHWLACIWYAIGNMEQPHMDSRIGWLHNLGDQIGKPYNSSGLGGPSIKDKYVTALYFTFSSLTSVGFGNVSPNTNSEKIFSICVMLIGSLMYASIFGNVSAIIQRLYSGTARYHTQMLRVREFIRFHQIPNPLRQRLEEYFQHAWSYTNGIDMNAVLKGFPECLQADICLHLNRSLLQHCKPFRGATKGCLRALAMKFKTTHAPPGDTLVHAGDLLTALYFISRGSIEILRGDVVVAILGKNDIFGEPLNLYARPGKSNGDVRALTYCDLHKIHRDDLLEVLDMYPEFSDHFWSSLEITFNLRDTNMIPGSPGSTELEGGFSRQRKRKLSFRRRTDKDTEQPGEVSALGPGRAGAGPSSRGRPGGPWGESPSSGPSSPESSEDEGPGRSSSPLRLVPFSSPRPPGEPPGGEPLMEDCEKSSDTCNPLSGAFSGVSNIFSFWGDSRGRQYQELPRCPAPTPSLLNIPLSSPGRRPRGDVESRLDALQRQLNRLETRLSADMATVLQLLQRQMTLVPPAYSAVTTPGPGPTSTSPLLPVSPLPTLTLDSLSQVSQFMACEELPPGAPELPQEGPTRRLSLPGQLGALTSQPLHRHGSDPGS
row,Structure (SMILES),"hERG current change (%, negative = inhibition) at 10uM [%]"
1,COc1ccc(C(=O)N/N=C/c2ccc3cccc(O)c3n2)cc1,-3.3
2,CC(=C1C(=O)c2ccccc2C1=O)N1CCN(Cc2ccccc2)CC1,-26.6
3,CS(=O)(=O)c1nc(S(=O)(=O)c2ccc(Cl)cc2)c(N2CCN(CCO)CC2)s1,-18.4
4,COc1cc(OC)c(C(=O)OCC(=O)N2CC(=O)Nc3ccccc32)cc1OC,28.1
5,CCCOc1ccc(N2CC(C(=O)Nc3ccccc3OC)CC2=O)cc1 (stereo not shown),-16.9
6,CCCCN(CCCNC(=O)Cn1ncc2ccsc2c1=O)Cc1ccccc1,-33.2
7,CC(C)C(=O)NNC(=O)c1c(O)c2ccccc2[nH]c1=O,10.3
8,COc1ccc(S(=O)(=O)N2CCC(C(=O)Nc3ccc4c(c3)OCCO4)CC2)cc1OC,-4.29
9,Nc1ccc(CSc2ccc(Cl)cc2)cc1,8.64
10,O=C(O)COc1ccc(/C=N/NC(=O)C(O)(c2ccccc2)c2ccccc2)cc1,26
11,COc1ccc(N2CCN(c3nc4ccccn4c(=O)c3C=O)CC2)cc1,-27.7
12,CCOc1ccc2[nH]c3nc(SCC(=O)NC4CC4)nnc3c2c1,14.1
13,COc1cc(/C=C/C(=O)OC(C)C(=O)Nc2c(C)n(C)n(-c3ccccc3)c2=O)ccc1O (stereo not shown),0.947
14,CCc1sc(C(=O)N2CCCN(C)CC2)cc1Br,-11.6
15,OCCC1CN(Cc2nc(-c3ccc(F)cc3)cs2)CCN1CCc1ccccc1 (stereo not shown),-80.6
16,COc1cc(/C=C/C(=O)N2CCN(C)CC2)cc(S(=O)(=O)N2CCc3ccccc32)c1OC.Cl,-7.62
17,Cc1ccc(NC(=O)C2CC(=O)n3ncnc3N2)cc1 (stereo not shown),-14.6
18,CCN(CC)C(=O)c1cccc(NC(=O)c2cc(-c3ccccn3)nc3ccccc23)c1,-0.65
19,CC(=O)c1cccc(NC(=O)COc2cc3oc(=O)c(CC(C)O)c(C)c3cc2Cl)c1 (stereo not shown),-57.7
20,CCC(C(=O)NCC1CCCO1)N(C(=O)CNS(=O)(=O)c1ccccc1)c1ccc(F)cc1 (stereo not shown),4.08
21,COC(=O)C1=C(C)Nc2ncnn2C1c1ccc(C)o1 (stereo not shown),6.14
22,CC(=O)c1ccc(NC(=O)CC(C)S(=O)(=O)c2ccc3c(c2)CCN3C(C)=O)cc1 (stereo not shown),-11.4

row,Structure (SMILES),"hERG current change (%, negative = inhibition) at 10uM [%]"
1,COc1cccc(-c2c(NC(C)=O)n(C)c3ccccc3c2=O)c1,18.3
2,COc1ccc(C2CC(c3ccccc3O)=NN2C(=O)c2ccccc2)cc1OC (stereo not shown),1.28
3,O=C(CCCN1C(=O)/C(=C/c2ccccc2)SC1=S)Nc1cccc(O)c1,2.17
4,NC(=O)c1c(NC(=O)c2ccncc2)sc2c1CCCCCC2,-7.5
5,O/N=C(\CN1CCCCC1)c1ccccc1,13.4
6,CN1CCN(C(=O)/C(=C/c2cn(C)c3ccccc23)NC(=O)c2ccccc2)CC1,14.9
7,C=CCN1CCN(C(=O)CCCc2ccccc2)CC1,26.1
8,Cc1oc2ccc(NS(=O)(=O)c3ccc(F)cc3)cc2c1C(=O)O,7.72
9,Cc1ccccc1OCC(O)Cn1c(N2CCCCC2)nc2c1c(=O)[nH]c(=O)n2C (stereo not shown),10.4
10,CN1CCCN(C(c2ccccc2)c2ccc(Cl)cc2)CC1.Cl (stereo not shown),-73.8
11,O=C(/C=C/c1cccs1)c1ccc(NC(=O)c2cccc(Br)c2)cc1,17.6
12,N#Cc1ccc(-c2csc(NC(=O)c3ccc(S(=O)(=O)N4CCc5ccccc5C4)cc3)n2)cc1,2.04
13,CC(C)(CC(=O)O)CC(=O)Nc1cc(C(F)(F)F)cc(C(F)(F)F)c1,15.9
14,CCN(CC)c1ccc(/C=C2\CCC(/C=N/NC(=O)c3ccc(=O)n(C)c3)=C2N2CCOCC2)cc1,9.64
15,N#CC(=C=[N-])/C=C(\C(=O)c1ccccc1)[n+]1ccccc1,9.31
16,CCOC(=O)N1CCN(c2cc(=O)n(-c3cccc(Br)c3)c(=O)[nH]2)CC1,9.31
17,CCOc1ccc(N2C(=O)CC(SC(=NC)Nc3ccc(F)cc3)C2=O)cc1 (stereo not shown),0.77
18,COc1ccc(C(=O)O)cc1S(=O)(=O)NC(C)C,8.33
19,Cc1ccc2nc(SCc3ccccc3)c(C=O)c(=O)n2c1,7.31
20,CCOc1ccccc1NS(=O)(=O)c1ccc(-c2cnc(C3CC3)o2)cc1,12.8
21,O=C(N/N=C\c1ccc([N+](=O)[O-])s1)c1cncc(Br)c1,-1.82
22,Cc1ccc(SCCC(=O)OCC(=O)Nc2ccc(C(N)=O)cc2)cc1,6.03

row,Structure (SMILES),"hERG current change (%, negative = inhibition) at 10uM [%]"
1,O=C(COC(=O)c1cc(S(=O)(=O)N2CCOCC2)ccc1Cl)NC1CC1,12.3
2,NS(=O)(=O)c1ccc(CCNC(=O)c2ccc3c(c2)OCO3)cc1,18.1
3,C=CCNC(=O)/C(C#N)=C/c1cn(-c2ccccc2)nc1-c1cccs1,-26.2
4,Cc1ccc(S(=O)(=O)C(C#N)c2nc3ccccc3nc2OC(C)C)cc1 (stereo not shown),-5.65
5,CCCC1=C(C(=O)OCC)C(c2sccc2C)n2ncnc2N1 (stereo not shown),8.12
6,CC(C)CC(NC(=O)OC(C)(C)C)C(=O)O.O (stereo not shown),3.52
7,Cc1csc(N/N=C/c2ccc([N+](=O)[O-])cc2)n1,1.1
8,CCOC(=O)c1c(C)nc2c(c1-c1ccccc1)C(=O)CC(C)(C)C2,-16.8
9,N#Cc1c(NC(=O)C2CCCO2)sc2c1CCCCC2 (stereo not shown),7.62
10,Cn1nccc1C(=O)N1CCN(c2ccccc2F)CC1,12.5
11,COC(=O)c1cc2ccsc2n1Cc1nc(-c2ccc(OC)cc2)oc1C,15.7
12,COc1cccc(Nc2nc(C)cc(C)c2C(N)=O)c1,18.9
13,O=C(NC1CCCCC1)c1ccc(OC2CCN(Cc3ccccn3)CC2)cc1,-16
14,CC1CN(c2ccc([N+](=O)[O-])cc2C#N)CC(C)O1 (stereo not shown),-48.6
15,CC(C)C[C@H](NC(=O)C1CC(=O)N(c2ccc3c(c2)OCCO3)C1)C(=O)N1CCCCC1 (stereo partly shown),2.06
16,CN1C(C(=O)NCc2ccc(OC(F)(F)F)cc2)CC2Cn3c(nc4cc(Cl)c(Cl)cc43)C21 (stereo not shown),-77.9
17,O=C(CN1C(=O)c2ccccc2C1=O)NCc1ccccn1,2.64
18,CCOC(=O)CNC(=O)CSc1nc(N(C)C)nc(N2CCOCC2)n1,19.2
19,Cc1ccccc1CSc1nc2ccccc2c(=O)[nH]1,0.279
20,C=CCn1c(=O)c2c(C)c(C)sc2n2c(Nc3ccc(OC)cc3)nnc12,3.59
21,CCCCc1ccc(NC(=S)NN2CCOCC2)cc1,5.15
22,COc1ccc(N(CC(=O)NCCSCc2c(F)cccc2Cl)S(C)(=O)=O)cc1OC,-6.45

row,Structure (SMILES),"hERG current change (%, negative = inhibition) at 10uM [%]"
1,CCc1sc(NC(=O)c2cc3ccccc3oc2=O)nc1-c1cccs1,9.1
2,CC(C)Oc1ccc(N2CC(C(=O)NC3=NCCS3)CC2=O)cc1 (stereo not shown),5.56
3,COc1ccccc1NC(=O)CC(=O)c1ccccc1,18.3
4,CN(C)/C=N/C(=S)Nc1ccccc1Cl,16.6
5,COc1ccc(CNCC(O)(c2ccccc2)c2ccccc2)cc1,-64
6,Nc1cccc(Cl)c1N1CCOCC1,8.66
7,Cc1ccsc1CN(C(=O)c1ccc([N+](=O)[O-])cc1)C1CCS(=O)(=O)C1 (stereo not shown),-60.8
8,COc1cc(NC(=O)CSc2ncnc3scc(-c4ccccc4)c23)c(C(=O)O)cc1OC,-45.7
9,Nc1cc(N)nc(SCCc2ccccc2)n1,1.76
10,O=c1[nH]c(CN2CCN(c3ccccc3)CC2)nc2scc(-c3ccccc3)c12,5
11,Cn1ncc2cc(NC(N)=S)ccc21,9.29
12,COC(=O)/C(=C\C(=O)c1ccccc1)Nc1ccc(OC)cc1,-2.25
13,C=CCOc1ccc(/C(O)=C2\C(=O)C(=O)N(CCCOC)C2c2ccncc2)cc1 (stereo not shown),15.8
14,CCOC(=O)N1CCC(NC(=O)c2ccccc2C(=O)O)CC1,-2.62
15,CC(=O)Nc1nc(C2CC2)cc(-c2ccccc2)c1C#N,7.17
16,CCN(CC)CCNC(=O)Cn1cnc2sc(C)c(S(=O)(=O)N3CCN(c4ccccc4OC)CC3)c2c1=O,8.64
17,Cc1cc(Br)c(OCc2ccc(C(=O)N/N=C3\CC4CC=CC34)cc2)c(Br)c1 (stereo not shown),1.57
18,COC(=O)Cn1nnc(N2CCOCC2)n1,22.2
19,CC(OC(=O)C1CSC2(c3ccc(F)cc3)CCC(=O)N12)C(=O)NC(N)=O (stereo not shown),-8
20,CCN1CCN(C(c2ccccc2OC)c2nnnn2C2CCCCC2)CC1.Cl (stereo not shown),-0.942
21,CC(C)CN(C(=O)C1COc2ccccc2O1)c1c(N)n(CC(C)C)c(=O)[nH]c1=O (stereo not shown),-2.18
22,Fc1ccc(C(c2nnnn2C2CCCC2)N(Cc2ccco2)CC2CCCO2)cc1 (stereo not shown),-28
